# Source: paper PMC12136788
# The other results are listed elsewhere or left out.
# B1: 35549997_35550542_3344_CDS_ENSMUSG00000041408_ENSMUST00000048263|mouse|control|control (ssRNA)
# RNA: GGGAGUUCUACAGUCCGACGAUCAGGUAGGUACUUUGGAACCUGAAGAACACAGUUCAUCGCUGUGCCUAUGAGUCCUUCUUGUUCUCCUGUCUUUGUGCUGCCCCACUCAUUAUCAUUAGUUAAAUUGAGCAAUACUCCAAUCAACAGAGGAUUGAGCAUCA
# B2: chr7:883111:883112:+_ENSG00000164828_ENST00000456758|hu_hu|FALSE|FALSE (ssRNA)
# RNA: GGGAGUUCUACAGUCCGACGAUCAGACGCACCGCAUUUUUGAUUCCUGUCCCUAGAAUAAACUCUCGACACGGGCCCGGGGGCCGCGGGGUGCGCCGUGAGCACGUCCUUGCGCUCGGACAGCAUGCUGCAGUUGCUGCAGGACAACAGAGGAUUGAGCAUCA
# B3: chr4:77932910:77932911:+_ENSG00000138758_ENST00000541121|hu_mus|motif|central (ssRNA)
# RNA: GGGAGUUCUACAGUCCGACGAUCUUUAAUUUUCAAUUCUUCUUGCAAGUAGGCCUCAAACUGGGCGUCAAUGUAUUCCACGGUAGGCUUAUAGCUGUCAUCUUUAUUAAUCUGGUCUCCAAAUCCCACUGUGUCAACGAUUGUCAACAGAGGAUUGAGCAUCA
# B4: 110476715_110494910_6061_CDS_ENSMUSG00000044791_ENSMUST00000153838|mouse|control|control (ssRNA)
# RNA: GGGAGUUCUACAGUCCGACGAUCUUCAGCUACUGUGCUCUCCUUUUCAGUUUGACUUUUCUUUGGAAUCCGAUACACCUCCUUUAGAUCUUUCCAACUGUCUAGUAACUUGGUAGCCAAAUCACUUAUAUCCACUGUUUUAUCCAACAGAGGAUUGAGCAUCA
# B5: chr15:96521860:96521861:-_ENSMUSG00000022462_ENSMUST00000023099|mus_mus|FALSE|FALSE (ssRNA)
# RNA: GGGAGUUCUACAGUCCGACGAUCGAACUCUUUUGUGGGACACAGUAAGUGAGUGACGGAACUCCGGAUAGGGAAAAUAACUACUGGGACCGUGAGGGUGACAGCCACCAGCACAGCCAAUCGGACAACAAGGAGAAGAAUGUCCAACAGAGGAUUGAGCAUCA
# B6: chr2:84898283:84898284:+_ENSMUSG00000033955_ENSMUST00000148682|mus_mus|FALSE|FALSE (ssRNA)
# RNA: GGGAGUUCUACAGUCCGACGAUCUUGAGGUGACCCAGGUCUUGGAAACGUCGGUAGGUGCUUCAGAGCAAGCCAGUUUAGCUAGGUCCCCAUUCAUUGCCGGGCUGGAAGUGAGGUUCCUCUCCUCAGGAGUCUUGCUAUGCUCAACAGAGGAUUGAGCAUCA
# B7: chr17:57752078:57752079:+_ENSG00000141367_ENST00000269122|hu_hu|motif|central (ssRNA)
# RNA: GGGAGUUCUACAGUCCGACGAUCAAUCAAGUUUUUUAUGACAUCUUCAGAACAGUCAACAUCAAGUAAUCCUCCAAUAACGGCAGGAAGUCGACUUGGAUUCACCUUCUGUACAUAUAUCUCUAUAUACUUUUGAAGAUUAUUCAACAGAGGAUUGAGCAUCA
# B8: chr7:141445308:141445309:+_ENSG00000106028_ENST00000265304|hu_hu|hu_hu_hu_mus_False|28_68 (ssRNA)
# RNA: GGGAGUUCUACAGUCCGACGAUCUAUGAUUGUUGUUGCUUGCCGCCUCACAUUGUUUUUAUCCAUGUAUUCACCAUAGUCCACUUUCCCUUCCACAAAUAUACGAGACCCCUUUUUCACAUACUGAUAUGCCACAUCUCUGAGCAACAGAGGAUUGAGCAUCA
# B9: chr15:98867917:98867918:+_ENSMUSG00000043091_ENSMUST00000058914|mus_mus|FALSE|FALSE (ssRNA)
# RNA: GGGAGUUCUACAGUCCGACGAUCAGGGUCACAUUUCACCAUCUGGUUGGCUGGCUCAAAGCAGGCAUUGGUGAUCUCUGCUACUGUAAGCUGCUCAUGGUAGGCUUUCUCAGCAGAGAUGACAGGGGCAUAAGUGGCCAGAGGCAACAGAGGAUUGAGCAUCA
# B10: chr9:95013113:95013114:-_ENSG00000196305_ENST00000443024|hu_hu|hu_hu_hu_mus_False|68_108 (ssRNA)
# RNA: GGGAGUUCUACAGUCCGACGAUCCUCAGUGAGAAAAGGCGUGUAAGGGGCCAUCAGUCUGCACAGAGAAAGCAGAACACUGAACAGUGUCUCCAGAGCCAUGACACAGUCUUCCACCCCACUCUCACCCUUUAACCUCCUCCUCAACAGAGGAUUGAGCAUCA
# B11: chr3:176740097:176740098:-_ENSG00000177565_ENST00000430069|hu_hu|motif|central (ssRNA)
# RNA: GGGAGUUCUACAGUCCGACGAUCUGUUUUUUACACCACAAAAGGAGGCACUUUCAGUAUCUGUAAAAGGUAUUUAAUCCGGAAACAUACUUACCUAGAGAAUAAUUAAAACAGAAUUCAAUACAAUCUAGUAUCUAUUAGGAACAACAGAGGAUUGAGCAUCA
# B12: chr20:46266449:46266450:+_ENSG00000124151_ENST00000372004|hu_mus|FALSE|FALSE (ssRNA)
# RNA: GGGAGUUCUACAGUCCGACGAUCCAUCUGCUGUUUGGCCCCUGGGUGACCGCCAUUUGUAGGAUUGUUGUAGAAGUCAGAACUGGUCAAAUCUCCAAGAAUGGCAUCUAGAUUAUCCAGGUCUCCCGAUACCUCCUCGUUCGUCAACAGAGGAUUGAGCAUCA
# B13: chr7:140404665:140404666:+_ENSG00000090266_ENST00000247866|hu_hu|hu_hu_hu_mus_False|38_38 (ssRNA)
# RNA: GGGAGUUCUACAGUCCGACGAUCUGCUCCUACUCGUCCAGAGAGUUUACAGUGUCAGUCCUCGUCAUCAGGAGGGAUUCCCAGUUCUUCAUCUGUCCACUGGGAAGGAUCUGGAUAUGAAAAGUGACCCAGCACAGCAUCCGACAACAGAGGAUUGAGCAUCA
# B14: chr6:30690706:30690707:+_ENSG00000196230_ENST00000327892|hu_mus|FALSE|FALSE (ssRNA)
# RNA: GGGAGUUCUACAGUCCGACGAUCUGAGCGAACGGAGUCCAUAGUCCCAGGUUCUAGAUCCACCAAGAUAGCUCGAGGGACAUACUUGCCACCUGUGGCUUCAUUAUAGUACACAGAGAUUCGGUCCAGCUGCAGGUCGCUGUCCAACAGAGGAUUGAGCAUCA
# Molecular target: T1, UNK ZnF1-3 (human, UniProt Q9C0B0 31-174)
# T1 sequence: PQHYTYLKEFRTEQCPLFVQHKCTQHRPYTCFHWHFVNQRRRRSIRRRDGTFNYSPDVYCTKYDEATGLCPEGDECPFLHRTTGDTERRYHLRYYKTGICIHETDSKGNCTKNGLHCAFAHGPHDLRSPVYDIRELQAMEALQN
# Experiment: nsRBNS (natural sequence RNA bind-n-seq); RBNS binding buffer (assumed for nsRBNS): 25 mM Tris pH 7.5, 150 mM KCl, 3 mM MgCl2, 0.01% Triton X-100, 500 ug/ml BSA, 20 U/ml SUPERase-In, 4 C; UNK is unkempt and MSI1 is Musashi-1; names of the RNAs are library labels; protein concentration not given here; high values mean tight binding
row,Binder,binding signal [enrichment R]
1,B1,0.816
2,B2,0.973
3,B3,0.623
4,B4,0.493
5,B5,1.5
6,B6,0.883
7,B7,0.737
8,B8,0.748
9,B9,1.08
10,B10,1.61
11,B11,0.663
12,B12,1.04
13,B13,1.49
14,B14,1
